# Assay results as given in the supplement of paper PMC10502849.
# Where a name gives a salt, the structure may show the parent alone. The list shows a part of the results. Repeats are few or missing, and single values can be far off.
# Legend:
# [1] = tested on: H9 teratoma-derived LAM model cells, TSC2-/-; assay: percent SyTOX+ dead cells; higher = more cytotoxic; details: 5 µM, treatment time 72 h, culture: 3D hyaluronic acid hydrogel
# [2] = tested on: H9 teratoma-derived LAM model cells, WT; assay: percent SyTOX+ dead cells; higher = more cytotoxic; details: 5 µM, treatment time 72 h, culture: 3D hyaluronic acid hydrogel, genotype: WT
# [3] = tested on: H9 teratoma-derived LAM model cells, TSC2-/-; assay: percent of cells invaded past median invasion distance of vehicle control; LAM is lymphangioleiomyomatosis; the cells come from teratomas of the human stem cell line H9; higher = more invasion; extreme values may be limits of the assay; details: 5 µM, treatment time 72 h, culture: 3D hyaluronic acid hydrogel
# [4] = tested on: H9 teratoma-derived LAM model cells, WT; assay: as above; details: 5 µM, treatment time 72 h, culture: 3D hyaluronic acid hydrogel, genotype: WT
# 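Throughout, for percent SyTOX+ dead cells: cells seeded atop a hyaluronic acid gel crosslinked via MMP-cleavable peptides, containing vitronectin peptides and methylcellulose, imaged live by high-content microscopy with automated analysis, one technical replicate per compound.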
# 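Throughout, for percent of cells invaded past median invasion distance of vehicle control: live cells imaged by high content microscopy and scored with in-house automated image analysis, one technical replicate per compound in each genotype and rapamycin condition.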
Compound,percent SyTOX+ dead cells ([1]; rapamycin 0 nM) [%],percent SyTOX+ dead cells ([1]; rapamycin 20 nM) [%],percent SyTOX+ dead cells ([2]; rapamycin 0 nM) [%],percent SyTOX+ dead cells ([2]; rapamycin 20 nM) [%],percent ([3]; rapamycin 0 nM) [%],percent ([3]; rapamycin 20 nM) [%],percent ([4]; rapamycin 0 nM) [%],percent ([4]; rapamycin 20 nM) [%]
FC(F)c1nc2ccccc2n1-c1nc(N2CCOCC2)nc(N2CCOCC2)n1,21.8,22.7,25.9,27.1,10.9,17.3,8.04,10.2
Cn1cc(-c2ccc3nnc(C(F)(F)c4ccc5ncccc5c4)n3n2)cn1,8.05,11.2,9.57,6.69,18.2,18,13.3,17.9
CC(=O)Nc1ccc([C@H](C)C(=O)Nc2ncc(C(C)C)s2)cc1,46.7,23.8,54.3,43.2,5.13,23.8,1.64,7.2
CCN(CC)CCCCN1c2ccccc2Oc2ccc(Cl)cc21 [10-DEBC hydrochloride],15,8.06,13.8,18.3,30.5,62.5,23.9,56.6
O=C(NCCCNc1nc(Nc2cccc(NC(=O)N3CCCC3)c2)ncc1I)c1cccs1,21.8,29.3,23.6,28.7,0,0.86,2.78,1.55
COc1cc2c(N3CCN(C(=O)Nc4ccc(OC(C)C)cc4)CC3)ncnc2cc1OCCCN1CCCCC1,9.09,31.1,18.4,24.2,36.4,18.4,10.7,6.67
COCC(=O)NC/C=C/c1ccc2ncnc(Nc3ccc(Oc4ccc(C)nc4)c(C)c3)c2c1,9.5,7.14,12.9,5.7,34.8,36.3,20.1,26.6
Nc1nccc(-c2ccc3noc(-c4ccc(Cl)cc4)c3c2)n1 [PIM 1 Inhibitor 2],11.5,20.8,16.7,23.1,27.6,12.1,29.3,21.9
C[S+]([O-])c1ccc(-c2nc(-c3ccc(F)cc3)c(-c3ccncc3)[nH]2)cc1 (stereo not drawn),9.09,7.69,29.5,8.82,15.2,24.2,4.46,10.6
CN(C)c1cc2c(Nc3ccc4c(cnn4Cc4ccccc4)c3)ncnc2cn1,11,13.6,12.6,15.1,52.2,36.1,27.6,44.8
CN1CCC(CNc2ccc3ncc(-c4cccc(OC(F)(F)F)c4)n3n2)CC1,9.3,16.1,25.1,10.9,36.4,42,1.03,9.09
Cc1cc(Nc2cc(N3CCN(C)CC3)nc(/C=C/c3ccccc3)n2)n[nH]1,19.4,20.3,50.3,48.9,29.9,78.4,4.81,18.3
CNc1cc2c(Nc3cccc(Br)c3)ncnc2cn1,23.5,20.9,17,17.3,16.9,11.9,17.8,5.67
"CC(/C=C/C(=O)NO)=C\[C@@H](C)C(=O)c1ccc(N(C)C)cc1 [Trichostatin A, TSA, Tricostatin A]",22.4,35,38,24.6,74.5,10.2,68,32.8
CN1CCC(COc2cnc(-c3cccc(Cn4nc(-c5cccc(C#N)c5)ccc4=O)c3)nc2)CC1,8.03,2.01,11.1,11.7,69.5,97.7,74.3,83.5
COc1ccc2c3n(c(=NC(=O)c4cccnc4)nc2c1OC)CCN3,25.2,32.6,46.9,25,3.88,27.3,0,7.14

Compound,percent SyTOX+ dead cells ([1]; rapamycin 0 nM) [%],percent SyTOX+ dead cells ([1]; rapamycin 20 nM) [%],percent SyTOX+ dead cells ([2]; rapamycin 0 nM) [%],percent SyTOX+ dead cells ([2]; rapamycin 20 nM) [%],percent ([3]; rapamycin 0 nM) [%],percent ([3]; rapamycin 20 nM) [%],percent ([4]; rapamycin 0 nM) [%],percent ([4]; rapamycin 20 nM) [%]
Cc1cc(C(C)Nc2ccccc2)c2nc(N3CCOCC3)cc(=O)n2c1 (stereo not drawn),17.6,16.9,32.3,19.4,17.6,11.3,30.7,38.2
Cc1[nH]c(/C=C2\C(=O)Nc3ccc(S(=O)(=O)Cc4c(Cl)cccc4Cl)cc32)c(C)c1C(=O)N1CCC[C@@H]1CN1CCCC1,98.9,99.5,98.9,98.5,24.5,7.21,23.3,8.29
CCN1/C(=C/C(C)=O)Sc2ccc(OC)cc21,4.38,5.22,6.87,6.58,50.6,99.6,31.8,81.2
"COc1cc2/c(=N/c3ccc(Br)cc3F)nc[nH]c2cc1OCC1CCN(C)CC1 [Vandetanib, Zactima, ZD6474, AZD-6474]",20.2,28.4,31.4,24.8,15.4,16.5,1.9,3.15
Cc1nc(Nc2ncc(C(=O)Nc3c(C)cccc3Cl)s2)cc(N2CCN(CCO)CC2)n1,35.6,26.9,56.5,71.7,0,0,0,0
N#C/C(=C\c1ccc(O)c(O)c1)C(=O)Nc1ccccc1,7.87,21.8,15.4,15.6,46.6,7.41,39.6,14.4
"Cc1ccc(-n2nc(C(C)(C)C)cc2NC(=O)Nc2ccc(OCCN3CCOCC3)c3ccccc23)cc1 [BIRB 796, Doramapimod]",2.78,0.35,12.5,2.49,59.7,100,62.5,68.9
COc1cc2c(NC3CCN(C(C)C)CC3)nc(C3CCCCC3)nc2cc1OCCCN1CCCC1,13.6,8.98,13.1,11.5,86.5,28.1,47.1,60.4
CCN1CCN(Cc2ccc(Nc3ncc(F)c(-c4cc(F)c5nc(C)n(C(C)C)c5c4)n3)nc2)CC1,5.14,3.45,11.9,10.9,76.7,77.8,58.8,30.4
NC1(c2ccc(-c3nc4ccn5c(=O)[nH]nc5c4cc3-c3ccccc3)cc2)CCC1,6.67,7.75,13.9,15.8,22.2,40.7,36.9,50.4
Cc1cccc(-c2nn3c(c2-c2ccnc4ccc(C(N)=O)cc24)CCC3)n1,62.1,55.9,68.5,82.2,0,18.8,0,5.02
CC[C@]1(O)C[C@H]2CN(CCc3c([nH]c4ccccc34)[C@@](C(=O)OC)(c3cc4c(cc3OC)N(C=O)[C@H]3[C@@](O)(C(=O)OC)[C@H](OC(C)=O)[C@]5(CC)C=CCN6CC[C@]43[C@@H]65)C2)C1,36.1,34.1,33.1,30.8,26.4,29.4,24.4,53
"COC(=O)CNC(=O)C(=O)OC [DMOG, Dimethyloxallyl Glycine]",6.61,7.62,7.74,1.52,88.5,34.1,49,50.5
CCN1CCN(c2ccc(Nc3cc(N(C)C(=O)Nc4c(Cl)c(OC)cc(OC)c4Cl)ncn3)cc2)CC1,8.52,1.46,17.2,7.25,96.6,74.5,90.5,51.3
O=C(Nc1cccc(Cl)c1)Nc1ncc(CCNc2ncnc3ccsc23)s1,31.3,18.2,39.4,20.7,74.8,51.2,18.1,29.6
